Assay results taken from PubChem BioAssay AID902 (National Center for Advancing Translational Sciences (NCATS), 2007).
Where “and” joins values, the source holds several entries; their conditions need not be identical. Identical values can stand only once. Out of some 130,000 compounds screened, about 1,900 (1.5%) were called active. Inconclusive results, whose numbers are uncertain, are shown with a selection of clear calls. The call rests on the fitted dose curve; in most records, active means well fitted cell-killing curve with a large enough effect; inconclusive means small, poorly fitted or top-dose-only effect; inactive means no such curve, though single readings can be large or run the other way. Potencies beside an inconclusive call are fits to weak or partial responses and may not hold up.

test: qHTS Screen for Compounds that Selectively Target Cancer Cells with p53 Mutations: Cytotoxicity of p53ts Cells at the Nonpermissive Temperature; settings: H1299-p53A138V viability at 39C, ATP luminescence, 24 h; activity change, negative = cell killing: at 46.1 µM (top of the series); further: nearly all actives have a fitted effect of over 55% in size
On the % scale 0 is the no-effect control and ±100 the full control effect; potency means the concentration at half of the fitted maximal effect; tags describe the fitted curve by direction and shape.

SMILES	activity change, negative = cell killing	Potency
COc1cc(C(=O)OCc2cc(=O)n3nc(C4CCCCC4)sc3n2)cc(OC)c1OC	inactive: -9.08%	
COc1ccc(CNC(=O)c2ccc(NC(=O)N3CC4CCCN4c4ccccc43)cc2)cc1 (configuration not stated)		inconclusive: 25.1 µM [cytotoxic, partial curve, poor fit]
O=C(Cc1ccccc1)Nc1sc2c(c1C(=O)Nc1ccccc1)CCCCC2		inconclusive: 12.6 µM [cytotoxic, single point]
CC(C)=CC(=O)Nc1ccc2c(c1)OCO2		inconclusive: 12.6 µM [cytotoxic, partial curve]
Cc1ccc(Nc2c(-c3ccc(N(C)C)cc3)nc3nc[nH]n23)cc1		inconclusive: 15.8 µM [cytotoxic, single point]
CC(=O)c1ccc(S(=O)(=O)Nc2ccc(-c3ccc(N4CCCCCC4)nn3)cc2)cc1		inconclusive: 5.01 µM [cytotoxic, partial curve]
CCn1c(SCCOc2ccc(Cl)cc2)nnc1-c1cccs1		inconclusive: 31.6 µM [cytotoxic, single point]
COc1cccc(-c2cn3c(n2)sc2cc(C(=O)NCCCc4ccccc4)ccc23)c1	inactive: -6.79%	
O=C(CC1(O)C(=O)N(CCc2ccccc2)c2ccc(Br)cc21)c1ccc(F)cc1 (configuration not stated)		inconclusive: 31.6 µM [cytotoxic, single point]
CN(C)c1ccnc(-c2cccc(NS(C)(=O)=O)c2)n1		inconclusive: 12.6 µM [cytotoxic, single point]
O=C(Cc1cc(=O)[nH]c(=O)[nH]1)NCC1CCCO1 (configuration not stated)		active: 20 µM
O=C(CCC(=O)N1CC2CCCN2c2ccccc21)NCc1cccc(Cl)c1 (configuration not stated)		inconclusive: 15.8 µM [cytotoxic, single point]
N#C/C(=C\c1ccc(O)c(O)c1)C(=O)NCc1ccccc1		inconclusive: 20 µM [cytotoxic, partial curve]
O=c1c(-c2cc(F)cc(F)c2)nc2cnc(N3CCOCC3)nc2n1C[C@H]1CCCO1	inactive: 2.45%	
CC(CN(C)C)CN1c2ccccc2Sc2ccccc21 (configuration not stated)	inactive: -7.04%	
COc1cccc(-c2cc(NCc3cccs3)ncn2)c1		inconclusive: 10 µM [cytotoxic, partial curve]
O=C(NCC(c1cccnc1)N1CCN(c2ccccc2F)CC1)c1ccccc1 (configuration not stated)		inconclusive: 12.6 µM [cytotoxic, partial curve]
O=C(Nc1ccc2c(c1)oc1ccccc12)N1CCOCC1		inconclusive: 12.6 µM [cytotoxic, partial curve]
N#Cc1ccccc1NC(=O)c1ccc2c(Cl)c3c(nc2c1)CCCC3	inactive: 16.1%	
CN(C)c1ccc(N=Nc2ccccc2C(=O)OCC(=O)N2CCCC2)cc1		inconclusive: 15.8 µM [cytotoxic, single point]
CCc1ccccc1NC(=O)CSCc1cnn(-c2ccccc2)c1-n1cccc1		inconclusive: 2 µM [cytotoxic, partial curve, poor fit]
COc1cc2c(cc1O)CC[C@@H]1[C@@H]2CC[C@@]2(C)[C@H](O)CC[C@H]12		inconclusive: 2.51 µM [cytotoxic, full curve, poor fit]
CCOC(=O)C1=C(C)NC(=O)NC1c1cn(-c2ccccc2)nc1-c1ccc(OCC)cc1 (configuration not stated)		inconclusive: 31.6 µM [cytotoxic, single point]

SMILES	activity change, negative = cell killing	Potency
Cc1ccc(C)c(NC(=O)c2cc(S(=O)(=O)N3CCCc4ccccc43)ccc2F)c1	inactive: -10.6%	
OC(CN=c1sc2ccccc2n1CC(O)COc1ccccc1)COc1ccccc1 (configuration not stated)		inconclusive: 12.6 µM [cytotoxic, single point]
COc1ccc2nc(NCc3ccccc3)[nH]c2c1		inconclusive: 12.6 µM [cytotoxic, single point]
O=C(O)CCSc1nnc(-c2ccc3c(c2)OCO3)o1		inconclusive: 12.6 µM [cytotoxic, partial curve]
COc1ccc(OC2C(O)COC2/C=C/C#Cc2ccc(F)cc2F)cc1 (configuration not stated)	inactive: -0.833% [at 9.22 µM] and inactive: -2.07% [at 9.22 µM]	
CC1=CC(=C2C(=O)c3ccccc3C2=O)C=C(C)N1C		inconclusive: 15.8 µM [cytotoxic, partial curve]
CCc1ccc(NC(=O)Cn2c(=O)n(CCCCC(=O)NCc3ccc4c(c3)OCO4)c(=O)c3ccccc32)cc1		inconclusive: 20 µM [cytotoxic, single point]
O=C(Cn1nnc(-c2ccc(N3CCOCC3)cc2)n1)OC1CCCCC1		inconclusive: 15.8 µM [cytotoxic, single point]
Cn1cc(/C=N/n2cnc3scc(-c4ccc(Cl)cc4)c3c2=O)c2ccccc21	inactive: -26.7%	
O=C(CCCCn1c(=O)c2ccccc2n(Cc2ccc(F)cc2)c1=O)NCc1ccco1		inconclusive: 12.6 µM [cytotoxic, partial curve]
O=C(Nc1ccccc1OC(=O)c1ccc(Cl)cc1)c1ccc(Cl)cc1		inconclusive: 20 µM [cytotoxic, single point]
CC(OC(=O)c1cc2sccc2n1C)C(=O)NCc1ccc2c(c1)OCO2 (configuration not stated)		inconclusive: 31.6 µM [cytotoxic, single point]
COCn1c(-c2ccc(OC)c(OC)c2)nc2ccccc21		inconclusive: 15.8 µM [cytotoxic, partial curve]
c1cc2c(cc1C1CCCCC1)c1c3n2CCCNC3CCC1 (configuration not stated)		inconclusive: 28.2 µM [cytotoxic, single point]
Cc1nn(CC(=O)Nc2ccccc2C(F)(F)F)c(=O)c2cccn12		inconclusive: 7.94 µM [cytotoxic, partial curve]
Cn1cccc1C(=O)N1CCC2(CCN(Cc3ccccc3)CC2)CC1	inactive: -6.38%	
CCn1c(NCc2ccc(OC)cc2)nc2ccccc21		inconclusive: 0.126 µM [cytotoxic, partial curve]
CC(C)C(c1nnnn1Cc1ccco1)N1CCN(c2nc3ccccc3s2)CC1 (configuration not stated)		inconclusive: 31.6 µM [cytotoxic, single point]
COc1ccc(CCNC(=O)CCCCn2c(=O)c3ccccc3n(Cc3ccccc3C)c2=O)cc1OC		inconclusive: 15.8 µM [cytotoxic, single point]
CCC(=O)Nc1ccc(CC)cc1-c1nc2ccccc2n(CC(=O)Nc2cccc(Cl)c2)c1=O	inactive: -1.37%	
O=C(Cn1c(=O)oc2cc(Cl)ccc21)Nc1cccc(C(F)(F)F)c1	inactive: 15.4%	
Cc1cc2c(cc1C)NC(CC(=O)Nc1ccccc1)C(=O)N2 (configuration not stated)		inconclusive: 31.6 µM [cytotoxic, single point]
Cc1ccc(O)c(NC(=O)c2ccc(Br)c(S(=O)(=O)N3CCCCC3)c2)c1		inconclusive: 15.8 µM [cytotoxic, single point]

SMILES	activity change, negative = cell killing	Potency
CN1CCN(C2=Cc3cc(Cl)ccc3Sc3cc(F)ccc32)CC1		inconclusive: 14.1 µM [cytotoxic, single point]
CCCCOc1ccc(CNC(=O)c2ccc(NC(=O)N3CCCCc4ccccc43)cc2)cc1		inconclusive: 0.005 µM [cytotoxic, full curve, poor fit]
COc1ccc(C(=O)Oc2c(CN3CCOCC3)cc(Cl)c3cccnc23)cc1		inconclusive: 10 µM [cytotoxic, partial curve]
COc1ccc(CNc2ccc3c(c2)nc(C)n3C)cc1		inconclusive: 12.6 µM [cytotoxic, single point]
Cc1ccc(C(=O)Nc2cccc(O)c2)cc1S(=O)(=O)N1CCCCCC1		inconclusive: 10 µM [cytotoxic, partial curve]
CCN(CC)CCCNC(=O)c1cn(CC)c2ccc(S(=O)(=O)N3CCc4ccccc4C3)cc2c1=O		inconclusive: 25.1 µM [cytotoxic, single point]
CCN(CC)CCCNC(=O)CSc1c2c(nc3cc(Cl)ccc13)CCCC2		inconclusive: 31.6 µM [cytotoxic, single point]
CCN1CCN(c2oc(-c3ccc(COc4ccc(C)cc4)o3)nc2C#N)CC1	inactive: -15.9%	
CCCCNC(=O)c1ccc2c(c1)NC(=O)C(CS(=O)(=O)Cc1cccc(C)c1)N2 (configuration not stated)		inconclusive: 2 µM [cytotoxic, full curve, poor fit]
COc1ccc(NC(=O)C2CCCNC2)cc1OCC(C)C (configuration not stated)	inactive: 2.83%	
COc1ccc(C(=O)N=c2nc3ccccn3s2)cc1		active: 0.316 µM
CN(C)CCCN(C(=O)c1cccs1)c1nc(-c2ccccc2)cs1	inactive: -18.8%	
CCOC(=O)c1c(-c2ccccc2)csc1NC(=O)c1cc(-c2ccc(Br)cc2)on1	inactive: 9.1%	
O=c1c2cn[nH]c2nc(SCc2cccc(Br)c2)n1-c1ccc(Cl)cc1		inconclusive: 15.8 µM [cytotoxic, single point]
Cc1ccn2c(Nc3ccc4c(c3)OCO4)c(-c3ccc(N(C)C)cc3)nc2c1		inconclusive: 10 µM [cytotoxic, partial curve]
Cc1ccc(-c2cn3nc(C)c(C)nc3n2)cc1		inconclusive: 3.98 µM [cytotoxic, full curve]
COc1nc(NCC(C)C)nc(Oc2ccc(=O)n(-c3ccccc3)n2)n1	inactive: -5.66%	
CCC(C)n1c(=N)c(C#N)cc2c(=O)n3ccccc3nc21 (configuration not stated)	inactive: 5.92%	
CC(C)(C)n1ncc2c(=O)n(CC(=O)NCc3ccccc3)cnc21		inconclusive: 20 µM [cytotoxic, partial curve]
CCN(CC)C(=O)c1sc2nc(-c3ccc(OC)cc3)cn2c1C		inconclusive: 12.6 µM [cytotoxic, partial curve]
Cc1ccc(C)c(CNC(=O)c2ccc3c(c2)nc2n3CCCCC2)c1		inconclusive: 31.6 µM [cytotoxic, single point]
